{
  "source": "ChEMBL document CHEMBL4888484",
  "about": "“Replenishing the malaria drug discovery pipeline: Screening and hit evaluation of the MMV Hit Generation Library 1 (HGL1) against asexual blood stage Plasmodium falciparum ,using a nano luciferase reporter read-out” (2022)",
  "note": "The campaign covered roughly 150,000 compounds. About 540 (0.36%) showed an effect of 50% or more. Some of the results follow.",
  "data": [
    {"test_system": "Plasmodium falciparum", "experiment": "Primary screen in NF54 nanoGlo assay, in single point, at 2uM, 72h; a lower Z score goes with more inhibition", "assay_type": "functional, Erythrocyte", "settings": "timepoint 72 hour", "units": {"% Inhibition": "%"}, "values": [
      {"molecule": "Cn1nc(O)c2c1CN(C(=O)Nc1cccc3cc[nH]c13)CC2", "% Inhibition": -3, "Z score": 0.45},
      {"molecule": "C#CCN(C(=O)Nc1nc(C)c(C)o1)C1CCCCC1", "% Inhibition": 29, "Z score": -3.84},
      {"molecule": "O=C(NCc1cccnc1-n1ccnc1)[C@H]1CCc2[nH]ncc2C1", "% Inhibition": -6, "Z score": 1.07},
      {"molecule": "CC(C)(C)[C@H]1CCc2c(sc3nc(-c4ccc(Br)cc4)cn23)C1", "% Inhibition": -7, "Z score": 0.97},
      {"molecule": "COC[C@@H](O)CN(C)C(=O)CC1CCCCCC1", "% Inhibition": -16, "Z score": 1.64},
      {"molecule": "Cc1ccc(S(=O)(=O)N2CC3CC2CO3)cc1F", "note": "(stereo unspecified)", "% Inhibition": -2, "Z score": 0.28},
      {"molecule": "CC(C)(C)C(=O)NCCNC(=O)c1ccncc1", "% Inhibition": -35, "Z score": 4.1},
      {"molecule": "CC(C)C1OCCC1C(=O)Nc1cnccc1-c1ccccc1", "note": "(stereo unspecified)", "% Inhibition": 0, "Z score": 0.06},
      {"molecule": "CCC(O)CN1CCOC(CN(CC(C)C)C(=O)c2ccccc2)C1", "note": "(stereo unspecified)", "% Inhibition": -5, "Z score": 0.72},
      {"molecule": "Cc1ccccc1-c1noc(Cn2ccnc2-c2cc3n(n2)CCCNC3)n1", "% Inhibition": -3, "Z score": 0.5},
      {"molecule": "CCOc1ccc(C(=O)NCC(=O)N[C@H]2C[C@@H](OC(C)C)C2)cc1", "% Inhibition": -2, "Z score": 0.24},
      {"molecule": "CCn1cc(NC(=O)NCC(F)(F)F)cn1", "% Inhibition": -6, "Z score": 0.74},
      {"molecule": "Cc1nc2nc(-c3ccc(Cl)cc3)nn2c(C)c1CC(=O)N1CCCCC1", "% Inhibition": -19, "Z score": 2.8},
      {"molecule": "Cc1cnc([C@H](C)NC(=O)N(Cc2ccccc2)CC(C)(C)O)s1", "% Inhibition": 3, "Z score": -0.33},
      {"molecule": "Cn1cc(C2CC2C(=O)Nc2cc(C(F)(F)F)c[nH]c2=O)cn1", "note": "(stereo unspecified)", "% Inhibition": -9, "Z score": 0.83},
      {"molecule": "CCn1cc(C(=O)Nc2cc(S(=O)(=O)CC)ccc2O)c(C)n1", "% Inhibition": -6, "Z score": 0.8},
      {"molecule": "CCN1C(=O)CCc2cc(N[C@@H](COC)C3CCOCC3)ccc21", "% Inhibition": 10, "Z score": -1.14},
      {"molecule": "CCn1c(CNc2ccccc2C(=O)NCc2ccco2)nc2cc(S(=O)(=O)N(C)C)ccc21", "% Inhibition": -19, "Z score": 1.81},
      {"molecule": "O=C(Nc1nc2ccccc2s1)C1CCN(c2ccc(-c3cccnc3)nn2)CC1", "% Inhibition": 0, "Z score": 0.03},
      {"molecule": "CN(C)C(=O)c1ccc2c(c1)N(CC(=O)N1CCC(Cc3ccccc3)CC1)C(=O)CO2", "% Inhibition": -14, "Z score": 1.84},
      {"molecule": "OCCOCCNCc1c(Cl)cccc1Cl", "% Inhibition": -10, "Z score": 1.16},
      {"molecule": "Cc1cc(CNC(=O)[C@H]2CCC[C@H](O)C2)cc(C)n1", "% Inhibition": 0, "Z score": 0.08},
      {"molecule": "Cc1ccc(CCC(=O)NCCc2n[nH]c(C)n2)c(C)c1", "% Inhibition": 2, "Z score": -0.22},
      {"molecule": "Cc1cnc(C)c(-c2cc(O)c3c(c2)CN(CC[C@H]2CCCN2C)CCO3)n1", "% Inhibition": -17, "Z score": 2.09},
      {"molecule": "N#Cc1ccc(C(=O)NS(=O)(=O)CCCC(F)(F)F)cn1", "% Inhibition": -6, "Z score": 0.94},
      {"molecule": "CCCCN(C(=O)c1ccc2nnnn2c1)[C@@H](C)CC", "% Inhibition": -3, "Z score": 0.58},
      {"molecule": "CCc1noc(C)c1C(=O)N[C@@H]1COCC[C@@H]1Oc1ccc(C)nc1", "% Inhibition": -1, "Z score": 0.13},
      {"molecule": "O=C(N[C@H]1CO[C@@H](CN2CCC(F)(F)CC2)[C@@H]1O)C1CCOCC1", "% Inhibition": -5, "Z score": 0.84},
      {"molecule": "Cc1nc(C)c(CNc2ccn(CCc3ccncc3)n2)s1", "% Inhibition": -10, "Z score": 1.28},
      {"molecule": "CC(C)=CCN1C(=O)[C@@H]2CC[C@H]1CN(C(=O)Nc1ccc(F)cc1F)C2", "% Inhibition": 3, "Z score": -0.53},
      {"molecule": "COc1ccccc1C(=O)NC[C@H]1CCCCC(=O)N1", "% Inhibition": -14, "Z score": 2.66},
      {"molecule": "CCn1cnnc1CCNC1CCN(c2ccc3c(c2)CCC3)CC1", "% Inhibition": -2, "Z score": 0.26},
      {"molecule": "OC[C@]1(F)CCCN(CC2CCC2)C1", "% Inhibition": -15, "Z score": 1.5},
      {"molecule": "COc1nccc(C(=O)N(C)C2(Cc3ccccc3)CCCC2)n1", "% Inhibition": -7, "Z score": 0.89},
      {"molecule": "CCC(=O)Nc1c(-c2ccccn2)nsc1C(=O)NCc1ccc(F)c(Cl)c1", "% Inhibition": 7, "Z score": -0.98},
      {"molecule": "O=C1CN(S(=O)(=O)c2ccc(Cl)cc2)C[C@H]2c3ccccc3CCN12", "% Inhibition": -8, "Z score": 1.09},
      {"molecule": "COCCN1C(=O)CN(C2CCN(CC(=O)Nc3cccc(F)c3)CC2)C1=O", "% Inhibition": -6, "Z score": 0.66},
      {"molecule": "CCN(C(=O)[C@H]1CCOC1)c1ccc(Cl)c(F)c1", "% Inhibition": 2, "Z score": -0.37},
      {"molecule": "N#CC1(C(=O)N2CCCCCCC2)CCC1", "% Inhibition": -7, "Z score": 1.07},
      {"molecule": "CCn1cncc1Cn1ccnc1-c1nccn1C", "% Inhibition": 9, "Z score": -1.31},
      {"molecule": "CC(C)=CC1C(C(=O)N2CCCC2C(=O)Nc2nc3ccccc3s2)C1(C)C", "note": "(stereo unspecified)", "% Inhibition": -10, "Z score": 1.65},
      {"molecule": "CCn1ccc(C(=O)N[C@@H]2CN(c3ccncn3)C[C@H]2CO)n1", "% Inhibition": -12, "Z score": 1.75},
      {"molecule": "CCc1cc(C(=O)Nc2cnns2)[nH]n1", "% Inhibition": -17, "Z score": 1.7}
    ]}
  ]
}
